From PMC9911399, “Two distinct binding modes provide the RNA-binding protein RbFox with extraordinary sequence specificity” come the findings set out here.

Substitutions are numbered along the chain they refer to; changes in the protein carry UniProt numbers. This is one part of the list.

Sequences and labels used below:
T1: RBFOX1 RRM RbFoxmut (Fox-RRM*) (Homo sapiens, UniProt Q9NWB1 109-208, R118D;E147R;N151S;E152T)
T1 sequence: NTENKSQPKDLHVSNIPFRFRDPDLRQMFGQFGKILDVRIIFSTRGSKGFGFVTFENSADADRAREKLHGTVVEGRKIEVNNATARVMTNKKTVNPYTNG

B1: CCUCGCU (DNA:RNA)
RNA: GGGAGACCGGAAUUCAGAUUGUCCCCUCGCUUUAAAUCCCGUCGUAGCCACCA
DNA 1: CAATCTGAATTCCGGTCTCCC
DNA 2: TGGTGGCTACGACGGGATT
B2: ACCAAUU (DNA:RNA)
RNA: B1 RNA with C25A, U27C, C28A, G29A, C30U
DNA 1: CAATCTGAATTCCGGTCTCCC
DNA 2: TGGTGGCTACGACGGGATT
B3: GAGUUUG (DNA:RNA)
RNA: GGGAGACCGGAAUUCAGAUUGUCCGAGUUUGUUAAAUCCCGUCGUAGCCACCA
DNA 1: CAATCTGAATTCCGGTCTCCC
DNA 2: TGGTGGCTACGACGGGATT
B4: UAUGAUC (DNA:RNA)
RNA: B3 RNA with G25U, G27U, U28G, U29A, G31C
DNA 1: CAATCTGAATTCCGGTCTCCC
DNA 2: TGGTGGCTACGACGGGATT
B5: ACCUUAC (DNA:RNA)
RNA: B3 RNA with G25A, A26C, G27C, U30A, G31C
DNA 1: CAATCTGAATTCCGGTCTCCC
DNA 2: TGGTGGCTACGACGGGATT
B6: UCCCCUG (DNA:RNA)
RNA: B1 RNA with C25U, U27C, G29C, C30U, U31G
DNA 1: CAATCTGAATTCCGGTCTCCC
DNA 2: TGGTGGCTACGACGGGATT
B7: GCGACUU (DNA:RNA)
RNA: B3 RNA with A26C, U28A, U29C, G31U
DNA 1: CAATCTGAATTCCGGTCTCCC
DNA 2: TGGTGGCTACGACGGGATT
B8: GACAAUU (DNA:RNA)
RNA: B3 RNA with G27C, U28A, U29A, G31U
DNA 1: CAATCTGAATTCCGGTCTCCC
DNA 2: TGGTGGCTACGACGGGATT
B9: UCUCGCC (DNA:RNA)
RNA: B1 RNA with C25U, U31C
DNA 1: CAATCTGAATTCCGGTCTCCC
DNA 2: TGGTGGCTACGACGGGATT
B10: UCUGUUC (DNA:RNA)
RNA: B1 RNA with C25U, C28G, G29U, C30U, U31C
DNA 1: CAATCTGAATTCCGGTCTCCC
DNA 2: TGGTGGCTACGACGGGATT
B11: CGCAAGU (DNA:RNA)
RNA: B1 RNA with C26G, U27C, C28A, G29A, C30G
DNA 1: CAATCTGAATTCCGGTCTCCC
DNA 2: TGGTGGCTACGACGGGATT
B12: AGCUGUU (DNA:RNA)
RNA: B1 RNA with C25A, C26G, U27C, C28U, C30U
DNA 1: CAATCTGAATTCCGGTCTCCC
DNA 2: TGGTGGCTACGACGGGATT
B13: UAUAGUA (DNA:RNA)
RNA: B1 RNA with C25U, C26A, C28A, C30U, U31A
DNA 1: CAATCTGAATTCCGGTCTCCC
DNA 2: TGGTGGCTACGACGGGATT
B14: UCGAAUA (DNA:RNA)
RNA: B3 RNA with G25U, A26C, U28A, U29A, G31A
DNA 1: CAATCTGAATTCCGGTCTCCC
DNA 2: TGGTGGCTACGACGGGATT
B15: AUAUUUC (DNA:RNA)
RNA: B3 RNA with G25A, A26U, G27A, G31C
DNA 1: CAATCTGAATTCCGGTCTCCC
DNA 2: TGGTGGCTACGACGGGATT
B16: CCGCCCA (DNA:RNA)
RNA: B1 RNA with U27G, G29C, U31A
DNA 1: CAATCTGAATTCCGGTCTCCC
DNA 2: TGGTGGCTACGACGGGATT
B17: UAGUGCA (DNA:RNA)
RNA: B3 RNA with G25U, U29G, U30C, G31A
DNA 1: CAATCTGAATTCCGGTCTCCC
DNA 2: TGGTGGCTACGACGGGATT
B18: GGGGUUG (DNA:RNA)
RNA: B3 RNA with A26G, U28G
DNA 1: CAATCTGAATTCCGGTCTCCC
DNA 2: TGGTGGCTACGACGGGATT
B19: AACAUCU (DNA:RNA)
RNA: B1 RNA with C25A, C26A, U27C, C28A, G29U
DNA 1: CAATCTGAATTCCGGTCTCCC
DNA 2: TGGTGGCTACGACGGGATT
B20: CCAUCUG (DNA:RNA)
RNA: B3 RNA with G25C, A26C, G27A, U29C
DNA 1: CAATCTGAATTCCGGTCTCCC
DNA 2: TGGTGGCTACGACGGGATT
B21: GCGACAU (DNA:RNA)
RNA: B1 RNA with C25G, U27G, C28A, G29C, C30A
DNA 1: CAATCTGAATTCCGGTCTCCC
DNA 2: TGGTGGCTACGACGGGATT
B22: GCAGCAG (DNA:RNA)
RNA: B3 RNA with A26C, G27A, U28G, U29C, U30A
DNA 1: CAATCTGAATTCCGGTCTCCC
DNA 2: TGGTGGCTACGACGGGATT
B23: GUAGUCC (DNA:RNA)
RNA: B3 RNA with A26U, G27A, U28G, U30C, G31C
DNA 1: CAATCTGAATTCCGGTCTCCC
DNA 2: TGGTGGCTACGACGGGATT
B24: GAGAAUU (DNA:RNA)
RNA: B3 RNA with U28A, U29A, G31U
DNA 1: CAATCTGAATTCCGGTCTCCC
DNA 2: TGGTGGCTACGACGGGATT
B25: ACCAGGC (DNA:RNA)
RNA: B1 RNA with C25A, U27C, C28A, C30G, U31C
DNA 1: CAATCTGAATTCCGGTCTCCC
DNA 2: TGGTGGCTACGACGGGATT
B26: GUCUUAA (DNA:RNA)
RNA: B3 RNA with A26U, G27C, U30A, G31A
DNA 1: CAATCTGAATTCCGGTCTCCC
DNA 2: TGGTGGCTACGACGGGATT
B27: AGGCCGU (DNA:RNA)
RNA: B1 RNA with C25A, C26G, U27G, G29C, C30G
DNA 1: CAATCTGAATTCCGGTCTCCC
DNA 2: TGGTGGCTACGACGGGATT
B28: UCGUCAG (DNA:RNA)
RNA: B3 RNA with G25U, A26C, U29C, U30A
DNA 1: CAATCTGAATTCCGGTCTCCC
DNA 2: TGGTGGCTACGACGGGATT
B29: ACGCGUU (DNA:RNA)
RNA: B1 RNA with C25A, U27G, C30U
DNA 1: CAATCTGAATTCCGGTCTCCC
DNA 2: TGGTGGCTACGACGGGATT
B30: ACUAAAG (DNA:RNA)
RNA: B1 RNA with C25A, C28A, G29A, C30A, U31G
DNA 1: CAATCTGAATTCCGGTCTCCC
DNA 2: TGGTGGCTACGACGGGATT
B31: AUGACCA (DNA:RNA)
RNA: B1 RNA with C25A, C26U, U27G, C28A, G29C, U31A
DNA 1: CAATCTGAATTCCGGTCTCCC
DNA 2: TGGTGGCTACGACGGGATT

The test has as its target T1, RBFOX1 RRM RbFoxmut (Fox-RRM*). The test is described as follows: EMSA; HiTS-Eq, 1 nM pool, 10 min; buffer printed only for the single-RNA assays: 10 mM Tris pH 7.5, 150 mM NaCl, 3.4 mM EDTA, 0.001% NP-40, 30 C. The note with it: tags: His6 N-terminal (pET28a); label: 5' 32P. The essentials: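 A pool of RNA with 7 randomized nucleotides, 5′-radiolabelled and with DNA-annealed flanks, was equilibrated at 1 nM for 10 min in 50 µL with purified RbFox RRM, wild type or mutant, across increasing protein concentrations. Free RNA was separated by 8% native PAGE, excised, reverse-transcribed, barcoded by PCR and sequenced. Relative association constants were obtained from read-count changes of each RNA species versus the control reaction and normalised to the cognate motif.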
On the technique in general: A gel shift assay detects complexes by their altered migration in electrophoresis.
As for B1, the binding signal is 0.0969 KA relative to UGCAUGU. Under B2 stands 0.0538 KA relative to UGCAUGU; under B3, 0.361 KA relative to UGCAUGU. On to B4, for which the binding signal is 0.046 KA relative to UGCAUGU. Under B5 stands 0.107 KA relative to UGCAUGU; under B6, 0.0913 KA relative to UGCAUGU; under B7, 0.0621 KA relative to UGCAUGU. Under B8 stands 0.0366 KA relative to UGCAUGU. With B9, the binding signal is 0.146 KA relative to UGCAUGU. To B10 belongs 0.104 KA relative to UGCAUGU; to B11, 0.126 KA relative to UGCAUGU. B12: the binding signal was 0.0994 KA relative to UGCAUGU.

Consider B13, for which the binding signal was 0.118 KA relative to UGCAUGU.

Turning to B14, the binding signal was 0.13 KA relative to UGCAUGU. In the case of B15, the binding signal was 0.0915 KA relative to UGCAUGU. On to B16, for which the binding signal was 0.0565 KA relative to UGCAUGU. Regarding B17, the binding signal is 0.187 KA relative to UGCAUGU. Consider B18, for which the binding signal is 0.609 KA relative to UGCAUGU. For the molecule B19, the binding signal was 0.0476 KA relative to UGCAUGU. Under B20 stands 0.0778 KA relative to UGCAUGU. On to B21, for which the binding signal is 0.0653 KA relative to UGCAUGU. To B22 belongs 0.0883 KA relative to UGCAUGU; to B23, 0.0984 KA relative to UGCAUGU; to B24, 0.0953 KA relative to UGCAUGU. To B25 belongs 0.0949 KA relative to UGCAUGU; to B26, 0.0967 KA relative to UGCAUGU. To B27 belongs 0.0905 KA relative to UGCAUGU; to B28, 0.102 KA relative to UGCAUGU. For B29, the binding signal was 0.133 KA relative to UGCAUGU. Take B30: the binding signal was 0.12 KA relative to UGCAUGU. On to B31, for which the binding signal is 0.0786 KA relative to UGCAUGU.
